Experimental data taken from publication PMC4336329 (PLoS ONE, 2015).
Out of some 310,000 compounds screened, about 2,200 (0.71%) showed an effect of 50% or more. The effect is printed as a negative number. This is one part of the list.

target: human ether-à-go-go-related gene (hERG) potassium channel (human, UniProt Q12809); assay: primary screen, population patch clamp on CHO cells stably expressing hERG
Sequence (Q12809 whole entry, looked up): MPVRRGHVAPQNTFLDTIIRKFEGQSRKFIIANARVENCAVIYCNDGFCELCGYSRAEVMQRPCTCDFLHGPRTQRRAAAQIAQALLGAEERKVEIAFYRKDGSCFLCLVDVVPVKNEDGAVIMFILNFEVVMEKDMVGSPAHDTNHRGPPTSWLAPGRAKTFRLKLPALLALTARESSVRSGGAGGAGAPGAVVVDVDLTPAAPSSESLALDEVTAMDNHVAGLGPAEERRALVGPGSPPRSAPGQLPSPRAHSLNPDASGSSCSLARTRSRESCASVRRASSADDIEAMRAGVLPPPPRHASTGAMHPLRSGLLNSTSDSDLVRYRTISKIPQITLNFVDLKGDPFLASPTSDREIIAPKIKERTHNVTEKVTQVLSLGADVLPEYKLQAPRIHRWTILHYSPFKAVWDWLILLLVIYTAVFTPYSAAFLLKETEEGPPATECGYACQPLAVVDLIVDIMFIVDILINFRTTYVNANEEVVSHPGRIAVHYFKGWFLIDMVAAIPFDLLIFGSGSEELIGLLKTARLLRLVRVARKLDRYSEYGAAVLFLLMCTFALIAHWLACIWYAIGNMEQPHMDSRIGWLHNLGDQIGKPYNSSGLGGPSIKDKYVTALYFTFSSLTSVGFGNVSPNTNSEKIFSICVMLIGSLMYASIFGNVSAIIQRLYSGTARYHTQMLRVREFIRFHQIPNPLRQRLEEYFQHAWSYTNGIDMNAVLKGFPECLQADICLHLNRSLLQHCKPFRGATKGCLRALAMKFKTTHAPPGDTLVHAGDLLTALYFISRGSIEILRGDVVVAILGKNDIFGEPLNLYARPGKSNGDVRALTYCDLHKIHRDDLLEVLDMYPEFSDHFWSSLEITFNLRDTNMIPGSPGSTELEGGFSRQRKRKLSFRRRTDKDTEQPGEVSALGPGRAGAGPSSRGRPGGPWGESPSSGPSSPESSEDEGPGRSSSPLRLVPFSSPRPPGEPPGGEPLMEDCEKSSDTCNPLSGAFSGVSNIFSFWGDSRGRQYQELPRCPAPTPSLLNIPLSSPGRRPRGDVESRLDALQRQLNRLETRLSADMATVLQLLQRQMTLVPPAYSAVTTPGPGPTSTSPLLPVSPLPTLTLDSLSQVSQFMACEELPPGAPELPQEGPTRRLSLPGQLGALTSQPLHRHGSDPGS

SMILES | hERG current change (%, negative = inhibition) at 1uM [%]
Cc1csc(NC(=O)C(Cl)c2ccccc2)n1.O=C(O)C(Cl)c1ccccc1 (stereo not shown) | 13.5
O=C(OCC(=O)N1CCCc2ccccc21)c1ccc(F)c(S(=O)(=O)N2CCOCC2)c1 | 10.8
Cc1ccnc(NC(=O)CCC(=O)N(CC(=O)NCc2ccc(F)cc2)c2ccc(F)cc2)c1 | 11.1
CN(C(=O)C1CCC(=O)N(CCCN2CCCC2=O)C1)C(C1CC1)C1CC1 (stereo not shown) | 15.4
CC1(C)OC(=O)N(CC(=O)Nc2cccc(C(F)(F)F)c2)C1(C)O (stereo not shown) | 12.8
CCCc1c(C)c(C#N)c2nc3ccccc3n2c1NCCCN1CCOCC1 | -20.5
O=C(c1ccccn1)C1CCCN(Cc2nc(Cc3cccc(F)c3)no2)C1 (stereo not shown) | 7.35
O=C(NC1=NCCS1)c1cccc(Br)c1 | 8.54
O=C(CCN1C(=O)/C(=C/c2ccccc2Cl)SC1=S)NC1CCS(=O)(=O)C1 (stereo not shown) | 10.3
Oc1ccc(/C=N/NC(=S)Nc2cccnc2)c(O)c1 | 7.17
N/C(=N\OC(=O)N1CCOCC1)c1ccc(Cl)cc1 | 18.2
O=Cc1cn(Cc2ccc(F)cc2Cl)c2ccccc12 | 4.54
CCC(=O)Nc1cc(-c2nn(C)c(=O)c3ccccc23)ccc1N1CCOCC1 | 10.3
CCn1cc(S(=O)(=O)CC(=O)N2CCc3ccccc32)c2ccccc21 | -3.09
Cc1ccc(N(C(C)C(=O)Nc2cccc(N(C)S(C)(=O)=O)c2)S(C)(=O)=O)cc1 (stereo not shown) | 11.4
CC(=O)c1ccc(C(=O)N(CCN(C)C)c2nc3c(Cl)cccc3s2)cc1.Cl | -3.91
CC(=O)N1N=C(c2ccccc2)OC12CCCC2 | 8.91
CCN(CC)S(=O)(=O)c1ccc(OC)c(NC(=O)c2ccc(=O)[nH]c2)c1 | 6.5
COC(=O)CC(=O)c1ccc2c(c1)OCO2 | 11.6
COc1ccc(C(C)C)cc1S(=O)(=O)N1CCN(c2ccccc2)CC1 | 16.8
Cc1ccc(N2CCN(/N=C/c3c(C)nn(-c4ccccc4)c3Cl)CC2)cc1 | 10.8
CCc1cc(=O)oc2cc(C)c(CN3CCCC(C)C3)c(O)c12 (stereo not shown) | 0.527
CCc1noc(C)c1C(=O)N1CCC(CCC(=O)Nc2cccc(C)c2)CC1 | -8.05
Cn1c(SCC(=O)c2ccc(F)cc2)nnc1-c1ccccc1N | 14.5
CCc1cc2c(C)ccc(C)c2nc1SCC(=O)Nc1c[nH]c(=O)[nH]c1=O | 5.61
CC(=O)c1cccc(CN2CCCC(CCC(=O)NCc3ccc(C)o3)C2)c1 (stereo not shown) | 9.01
O=C(Nc1cc2c(cc1Cl)OCCO2)c1ccco1 | 14.6
Cc1cnc(C(=O)OCC(=O)N(C)CC(=O)Nc2ccccc2Cl)cn1 | 9.35

SMILES | hERG current change (%, negative = inhibition) at 1uM [%]
Clc1ccccc1Cc1noc(CN2CCCCC2CCc2ccccn2)n1 (stereo not shown) | -3.35
CCn1ccnc1CN1CCCC(C(=O)c2ccc3c4c(cccc24)CC3)C1 (stereo not shown) | -4.34
COCCn1c(SCC(=O)N2CC(=O)Nc3ccccc32)nc2ccccc2c1=O | -3.74
Oc1ccc(/C=C/c2cc(O)cc(O)c2)cc1 | 3.24
COC(=O)c1ccc(CNC(=O)c2cc(COc3cncc(Cl)c3)on2)cc1 | 17.2
CC(C)CCNC(=O)C12CN(Cc3ccccc3)CC1C(c1ccc([N+](=O)[O-])cc1)=NO2 (stereo not shown) | -12.7
CC(C)(C)OC(=O)N1CCN(C(=O)c2[nH]cnc2C(=O)Nc2ccon2)CC1 | 12.3
CN(C)c1cccc2c1c(NC(=O)Nc1ccc(F)cc1F)nn2C | 8.86
Cc1cccc(NC(=O)c2ccccc2NC(=O)c2ccco2)c1 | 0.671
NCCCC[C@@H](C(=O)N1CCNCC1)n1cc([C@@H](N)CC(N)=O)nn1 | 6.56
CC1CCN(C(c2nnnn2CCc2ccccc2)C(C)C)CC1 (stereo not shown) | 0.875
c1cncc(C2CC(c3cccs3)n3ncnc3N2)c1 (stereo not shown) | 9.93
CN(C(=O)COC(=O)c1c[nH]c(=O)[nH]c1=O)C1CCCCC1 | -2.51
CC(C)OCCCN1CN(S(=O)(=O)c2ccc(Cl)cc2)c2nc3ccccc3nc21 | 13.8
COc1ccc(-c2ccc(=O)n(CC(=O)Nc3ccc4c(c3)OCCO4)n2)cc1 | 17.9
O=C(COc1ccccc1F)NNC(=O)Cn1c(=O)cnc2ccccc21 | 10.8
Cc1ccccc1-n1nnnc1SCC(=O)NCC1CCCO1 (stereo not shown) | 9.06
Cn1cnnc1Sc1ccc(/C=C(\CCC(=O)O)c2nc3ccccc3s2)cc1[N+](=O)[O-] | 6.87
COc1cc(CN2CCN(c3ccccc3F)CC2)c([N+](=O)[O-])cc1OC | 0.56
O=C(CN1C(=O)CCS(=O)(=O)c2ccccc21)Nc1ccccc1F | 6.63
CC(C)(C)C(=O)Nc1cccc(-c2nnc(-c3cccc(NC(=O)C(C)(C)C)c3)o2)c1 | 4.48
Cc1ccc(NC(=O)CSc2nccn2C)cc1S(=O)(=O)N1CCOCC1 | 6.45
CN1CCC(=NNC(=O)c2cc(-c3ccc(Cl)cc3)n[nH]2)CC1 | 2.03
CC1(OC(=O)CCc2ccccc2)C(=O)C=C2C=C(c3ccc(C#N)cc3)N(CCc3c[nH]c4ccccc34)C=C2C1=O (stereo not shown) | 12.3
COc1ccccc1NC(=O)NS(=O)(=O)c1ccc(C)cc1 | 13.3
O=c1c2c(-c3cccs3)csc2ncn1-c1ccc(Br)cc1 | -2.84
Cc1ccccc1S(=O)(=O)c1c(C)cc(-c2ccccc2)[nH]c1=O | -0.185
